Experimental data taken from patent US7517874B2 (priority 2007, dated 2009).

Molecular target: human CB2 receptor (hCB2) (Homo sapiens, UniProt P34972)
Experiment: cell-based
Assay type: cell-based
Settings: for +/− HCB2: agonist or inverse agonist at hCB2
[1] = groups >100 nM-10 μM and >10 μM, cAMP, CHO-K1 hCB2, read-out: EC50 HCB2

human CB2 receptor (hCB2), sequence (P34972 whole entry): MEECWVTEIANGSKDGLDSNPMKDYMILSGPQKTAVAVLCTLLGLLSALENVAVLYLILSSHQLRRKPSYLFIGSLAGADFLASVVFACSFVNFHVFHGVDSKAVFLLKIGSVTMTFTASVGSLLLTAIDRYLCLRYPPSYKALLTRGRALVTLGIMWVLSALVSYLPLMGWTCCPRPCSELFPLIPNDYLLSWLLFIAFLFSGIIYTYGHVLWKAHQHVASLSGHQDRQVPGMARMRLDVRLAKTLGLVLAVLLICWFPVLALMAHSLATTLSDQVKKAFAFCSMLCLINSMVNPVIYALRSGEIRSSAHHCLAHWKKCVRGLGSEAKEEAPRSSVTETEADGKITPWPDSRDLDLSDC

Row | SMILES | +/− HCB2 | EC50 | further results
1 | CC12CCC(C1)C(C)(C)C2NC(=O)c1nc(-c2ccccc2)n2c1CN(CCO)CC2 (stereo not drawn) [Compound 143, 7-(2-hydroxyethyl)-3-phenyl-N-(1,3,3-trimethylbicyclo[2.2.1]heptan-2-yl)-5,6,7,8-tetrahydroimidazo[1,5-a]pyrazine-1-carboxamide] | + |  | 
2 | CC(C)=CC(=O)c1nc(-c2ccccc2)n2c1CN(C)CC2 [Compound 293, 3-methyl-1-(7-methyl-3-phenyl-5,6,7,8-tetrahydroimidazo[1,5-a]pyrazin-1-yl)but-2-en-1-one] |  |  | EC50 [1]: > 10000 nM
3 | CCCN1CCn2c(-c3ccccc3)nc(C(=O)Nc3ccccc3)c2C1 [Compound 154, N,3-diphenyl-7-propyl-5,6,7,8-tetrahydroimidazo[1,5-a]pyrazine-1-carboxamide] |  | > 10000 nM | 
4 | C[C@H](NC(=O)c1nc(-c2ccccc2)n2c1CN(C(=O)C1CC1)CC2)c1ccccc1 [Compound 124, (S)-7-(cyclopropanecarbonyl)-3-phenyl-N-(1-phenylethyl)-5,6,7,8-tetrahydroimidazo[1,5-a]pyrazine-1-carboxamide] |  | > 10000 nM | 
5 | CNC(=O)[C@@H](NC(=O)c1nc(-c2ccc(OC)c(F)c2)n2c1CN(C)CCC2)C(C)(C)C [Compound 404, (S)-N-(3,3-dimethyl-1-(methylamino)-1-oxobutan-2-yl)-3-(3-fluoro-4-methoxyphenyl)-8-methyl-6,7,8,9-tetrahydro-5H-imidazo[1,5-a][1,4]diazepine-1-carboxamide] | + |  | 
6 | CNC(=O)[C@@H](NC(=O)c1nc(C2CCC(C)CC2)n2c1CN(C)CCC2)C(C)(C)C (stereo partly drawn) [Compound 499, (S)-N-(3,3-dimethyl-1-(methylamino)-1-oxobutan-2-yl)-8-methyl-3-(4-methylcyclohexyl)-6,7,8,9-tetrahydro-5H-imidazo[1,5-a][1,4]diazepine-1-carboxamide] | + |  | 
7 | CNC(=O)[C@@H](NC(=O)c1nc(-c2cc(F)ccc2F)n2c1CN(C)CC2)C(C)(C)C [Compound 250, (S)-3-(2,5-difluorophenyl)-N-(3,3-dimethyl-1-(methylamino)-1-oxobutan-2-yl)-7-methyl-5,6,7,8-tetrahydroimidazo[1,5-a]pyrazine-1-carboxamide] | + |  | 
8 | CNC(=O)[C@@H](NC(=O)c1nc(-c2ccc(F)c(C)c2)n2c1CNCC2)C(C)(C)C [Compound 7, (S)-N-(3,3-dimethyl-1-(methylamino)-1-oxobutan-2-yl)-3-(4-fluoro-3-methylphenyl)-5,6,7,8-tetrahydroimidazo[1,5-a]pyrazine-1-carboxamide] | + |  | 
9 | CNC(=O)[C@@H](NC(=O)c1nc(C2CCCCO2)n2c1CN(C)CCC2)C(C)(C)C (stereo partly drawn) [Compound 504, N-((S)-3,3-dimethyl-1-(methylamino)-1-oxobutan-2-yl)-8-methyl-3-(tetrahydro-2H-pyran-2-yl)-6,7,8,9-tetrahydro-5H-imidazo[1,5-a][1,4]diazepine-1-carboxamide] | + |  | 
10 | CNC(=O)[C@@H](NC(=O)c1nc(-c2ccccc2)n2c1CN(CC1CC1)CC2)C(C)(C)C [Compound 56, (S)-7-(cyclopropylmethyl)-N-(3,3-dimethyl-1-(methylamino)-1-oxobutan-2-yl)-3-phenyl-5,6,7,8-tetrahydroimidazo[1,5-a]pyrazine-1-carboxamide] | − |  | 
11 | CNC(=O)[C@@H](NC(=O)c1nc(-c2ccccc2)n2c1CN(C)CCC2)C(C)(C)O [Compound 607, (S)-N-(3-hydroxy-3-methyl-1-(methylamino)-1-oxobutan-2-yl)-8-methyl-3-phenyl-6,7,8,9-tetrahydro-5H-imidazo[1,5-a][1,4]diazepine-1-carboxamide] | + |  | 
12 | CN1CCCn2c(-c3ccc(Cl)c(F)c3)nc(C(=O)N[C@@H](CC(C)(C)C)C(N)=O)c2C1 [Compound 588, (S)-N-(1-amino-4,4-dimethyl-1-oxopentan-2-yl)-3-(4-chloro-3-fluorophenyl)-8-methyl-6,7,8,9-tetrahydro-5H-imidazo[1,5-a][1,4]diazepine-1-carboxamide] | + |  | 
13 | COC(=O)N1CCn2c(-c3ccccc3)nc(C(=O)N[C@@H](C)c3ccccc3)c2C1 [Compound 179, (S)-methyl 3-phenyl-1-(1-phenylethylcarbamoyl)-5,6-dihydroimidazo[1,5-a]pyrazine-7(8H)-carboxylate] |  | > 10000 nM | 
14 | CNC(=O)[C@@H](NC(=O)c1nc(-c2ccccc2)n2c1CN(C(=O)OC(C)(C)C)CCC2)C(C)(C)C [Compound 312, (S)-tert-butyl 1-(3,3-dimethyl-1-(methylamino)-1-oxobutan-2-ylcarbamoyl)-3-phenyl-6,7-dihydro-5H-imidazo[1,5-a][1,4]diazepine-8(9H)-carboxylate] |  | > 10000 nM | 
15 | CC(C)(C)CNC(=O)c1nc(-c2ccccc2)n2c1CN(S(=O)(=O)c1ccc(F)cc1)CC2 [Compound 103, 7-(4-fluorophenylsulfonyl)-N-neopentyl-3-phenyl-5,6,7,8-tetrahydroimidazo[1,5-a]pyrazine-1-carboxamide] |  | > 10000 nM | 
16 | CNC(=O)[C@@H](NC(=O)c1nc(-c2ccc(Cl)cc2F)n2c1CN(C1CCNCC1)CCC2)C(C)(C)C [Compound 526, (S)-3-(4-chloro-2-fluorophenyl)-N-(3,3-dimethyl-1-(methylamino)-1-oxobutan-2-yl)-8-(piperidin-4-yl)-6,7,8,9-tetrahydro-5H-imidazo[1,5-a][1,4]diazepine-1-carboxamide] |  | > 10000 nM | 
17 | CNC(=O)[C@@H](NC(=O)c1nc(-c2cccc(OC(F)(F)F)c2)n2c1CN(C)CCC2)C(C)(C)C [Compound 338, (S)-N-(3,3-dimethyl-1-(methylamino)-1-oxobutan-2-yl)-8-methyl-3-(3-(trifluoromethoxy)phenyl)-6,7,8,9-tetrahydro-5H-imidazo[1,5-a][1,4]diazepine-1-carboxamide] | + |  | 
18 | COC(=O)[C@@H](NC(=O)c1nc(-c2ccc(C)cc2F)n2c1CNCCC2)C(C)(C)C [Compound 466] |  | > 10000 nM | 
19 | CN1CCCn2c(-c3cc(F)c(F)cc3F)nc(C(=O)N[C@H](C(N)=O)C(C)(C)C)c2C1 [Compound 579, (S)-N-(1-amino-3,3-dimethyl-1-oxobutan-2-yl)-8-methyl-3-(2,4,5-trifluorophenyl)-6,7,8,9-tetrahydro-5H-imidazo[1,5-a][1,4]diazepine-1-carboxamide] | + |  | 
20 | CC(C)C[C@H](NC(=O)c1nc(-c2cc(F)ccc2F)n2c1CN(C)CCC2)C(N)=O [Compound 567, (S)-N-(1-amino-4-methyl-1-oxopentan-2-yl)-3-(2,5-difluorophenyl)-8-methyl-6,7,8,9-tetrahydro-5H-imidazo[1,5-a][1,4]diazepine-1-carboxamide] | + |  | 
21 | CNC(=O)[C@@H](NC(=O)c1nc(-c2cccc(F)c2)n2c1CN(C)CC2)C(C)(C)C [Compound 244, (S)-N-(3,3-dimethyl-1-(methylamino)-1-oxobutan-2-yl)-3-(3-fluorophenyl)-7-methyl-5,6,7,8-tetrahydroimidazo[1,5-a]pyrazine-1-carboxamide] | + |  | 
22 | O=C(NC1CCCCC1)c1nc(-c2ccccc2)n2c1CN(CC1CCOC1)CC2 (stereo not drawn) [Compound 141, N-cyclohexyl-3-phenyl-7-((tetrahydrofuran-3-yl)methyl)-5,6,7,8-tetrahydroimidazo[1,5-a]pyrazine-1-carboxamide] | + |  | 
23 | O=C(NCC1CCOCC1)c1nc(-c2ccccc2)n2c1CNCC2 [Compound 46, 3-phenyl-N-((tetrahydro-2H-pyran-4-yl)methyl)-5,6,7,8-tetrahydroimidazo[1,5-a]pyrazine-1-carboxamide] |  |  | EC50 [1]: > 10000 nM
24 | CNC(=O)[C@@H](NC(=O)c1nc(-c2ccccc2)n2c1CN(C)CC2)C(C)(C)C [Compound 48, (S)-N-(3,3-dimethyl-1-(methylamino)-1-oxobutan-2-yl)-7-methyl-3-phenyl-5,6,7,8-tetrahydroimidazo[1,5-a]pyrazine-1-carboxamide] | + |  | 
25 | CCN(CC)C/C=C/c1nc(C(=O)N[C@H](C(=O)NC)C(C)(C)C)c2n1CCCN(C)C2 [Compound 512, (S,E)-3-(3-(diethylamino)prop-1-enyl)-N-(3,3-dimethyl-1-(methylamino)-1-oxobutan-2-yl)-8-methyl-6,7,8,9-tetrahydro-5H-imidazo[1,5-a][1,4]diazepine-1-carboxamide] |  | > 10000 nM | 
26 | COC(=O)N1CCn2c(-c3ccccc3)nc(C(=O)NN3CCCCC3)c2C1 [Compound 182, methyl 3-phenyl-1-(piperidin-1-ylcarbamoyl)-5,6-dihydroimidazo[1,5-a]pyrazine-7(8H)-carboxylate] |  |  | EC50 [1]: > 10000 nM
27 | CNC(=O)[C@@H](NC(=O)c1nc(C(C)c2ccccc2)n2c1CN(C)CCC2)C(C)(C)C (stereo partly drawn) [Compound 506, N-((S)-3,3-dimethyl-1-(methylamino)-1-oxobutan-2-yl)-8-methyl-3-(1-phenylethyl)-6,7,8,9-tetrahydro-5H-imidazo[1,5-a][1,4]diazepine-1-carboxamide] | + |  | 
28 | CNC(=O)[C@H](Cc1cscn1)NC(=O)c1nc(-c2cc(F)c(F)cc2F)n2c1CN(C)CCC2 [Compound 592, (S)-8-methyl-N-(1-(methylamino)-1-oxo-3-(thiazol-4-yl)propan-2-yl)-3-(2,4,5-trifluorophenyl)-6,7,8,9-tetrahydro-5H-imidazo[1,5-a][1,4]diazepine-1-carboxamide] |  | > 10000 nM | 
29 | CNC(=O)[C@@H](NC(=O)c1nc(C(O)c2ccccc2)n2c1CN(C)CC2)C(C)(C)C (stereo partly drawn) [Compound 295, N-((S)-3,3-dimethyl-1-(methylamino)-1-oxobutan-2-yl)-3-(hydroxy(phenyl)methyl)-7-methyl-5,6,7,8-tetrahydroimidazo[1,5-a]pyrazine-1-carboxamide] | + |  | 
30 | CNC(=O)[C@@H](NC(=O)c1nc(-c2cc3ccccc3o2)n2c1CN(C)CCC2)C(C)(C)C [Compound 351, (S)-3-(benzofuran-2-yl)-N-(3,3-dimethyl-1-(methylamino)-1-oxobutan-2-yl)-8-methyl-6,7,8,9-tetrahydro-5H-imidazo[1,5-a][1,4]diazepine-1-carboxamide] | + |  | 

Where two headings read alike, the source gives them in different places.
